PMC4336329 (PLoS ONE, 2015)
In all, about 310,000 compounds went through this assay and about 14,000 (4.5%) showed an effect of 50% or more. The effect is printed as a negative number. The list shows a part of the results.

target: human ether-à-go-go-related gene (hERG) potassium channel (human, UniProt Q12809); assay: primary screen, population patch clamp on CHO cells stably expressing hERG
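Also: peak tail current of the secondary pulse compared with the same well before compound.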

Chain of human ether-à-go-go-related gene (hERG) potassium channel (Q12809 whole entry, looked up): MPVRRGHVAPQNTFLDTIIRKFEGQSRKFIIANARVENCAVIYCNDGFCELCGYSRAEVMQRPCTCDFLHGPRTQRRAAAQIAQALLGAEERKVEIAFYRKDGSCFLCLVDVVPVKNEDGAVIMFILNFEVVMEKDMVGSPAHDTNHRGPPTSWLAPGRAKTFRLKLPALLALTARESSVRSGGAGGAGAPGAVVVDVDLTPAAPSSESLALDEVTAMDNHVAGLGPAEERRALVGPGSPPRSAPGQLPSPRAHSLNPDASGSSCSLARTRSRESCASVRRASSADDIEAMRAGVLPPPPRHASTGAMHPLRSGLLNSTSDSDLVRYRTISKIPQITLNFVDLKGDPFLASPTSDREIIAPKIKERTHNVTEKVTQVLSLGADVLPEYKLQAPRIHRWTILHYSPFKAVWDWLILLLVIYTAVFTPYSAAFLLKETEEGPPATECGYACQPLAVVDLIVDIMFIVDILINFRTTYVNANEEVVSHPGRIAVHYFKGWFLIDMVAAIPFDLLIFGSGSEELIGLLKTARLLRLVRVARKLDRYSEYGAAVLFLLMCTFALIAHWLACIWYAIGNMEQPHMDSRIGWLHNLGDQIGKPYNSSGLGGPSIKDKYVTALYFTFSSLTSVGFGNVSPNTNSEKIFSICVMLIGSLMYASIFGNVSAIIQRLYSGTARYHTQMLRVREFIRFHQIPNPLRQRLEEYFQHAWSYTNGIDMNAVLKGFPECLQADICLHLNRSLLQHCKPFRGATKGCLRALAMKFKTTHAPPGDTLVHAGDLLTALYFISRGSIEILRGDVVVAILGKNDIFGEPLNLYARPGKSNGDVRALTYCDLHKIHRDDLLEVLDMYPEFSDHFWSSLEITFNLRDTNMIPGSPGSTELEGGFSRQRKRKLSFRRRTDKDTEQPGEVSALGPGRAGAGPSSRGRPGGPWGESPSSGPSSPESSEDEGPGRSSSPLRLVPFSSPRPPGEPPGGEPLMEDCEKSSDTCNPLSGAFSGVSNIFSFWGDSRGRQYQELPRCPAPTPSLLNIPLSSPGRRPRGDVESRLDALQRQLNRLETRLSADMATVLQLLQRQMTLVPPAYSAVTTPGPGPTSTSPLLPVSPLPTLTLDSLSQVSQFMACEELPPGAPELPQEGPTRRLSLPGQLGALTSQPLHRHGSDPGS

SMILES	hERG current change (%, negative = inhibition) at 10uM
CS(=O)(=O)N1CCN(c2c(Cl)cccc2[N+](=O)[O-])CC1	-3.53%
Nc1ccc2oc(-c3ccccc3Cl)nc2c1	-16.4%
Cc1nnc(NC(=O)CSc2ccc3nnc(-c4cccnc4)n3n2)s1	6.27%
CC(C)c1ccc(NC(=O)C2C3C=CC(CC3)C2C(=O)O)cc1 (centres unmarked)	-11.3%
CN(CC(=O)Nc1ccc(F)cc1)C(=O)C1CC(=O)N(Cc2ccccc2)C1 (centres unmarked)	-4.88%
CSc1ccc(S(=O)(=O)N2CCC(C(=O)NCCc3ccccc3)CC2)cc1	20.9%
CN1CCSc2ccc(C(=O)Nc3cc(F)ccc3F)cc21	8.15%
O=c1[nH]cc(N=Cc2cc([N+](=O)[O-])ccc2O)c(=O)[nH]1	12%
COc1ccc(NC2CCCN(C(=O)c3ccncc3)C2)cc1 (centres unmarked)	12.6%
CC(C)(C)SCCNC(=O)c1ccccc1	-5.17%
CCc1c(C)nc(N)n2c(SCC(=O)NC3CCCCC3)nnc12	2.41%
CCc1ccc(NC(=O)C(C)OC(=O)CCC(=O)c2cccs2)cc1 (centres unmarked)	-40%
CC(=O)c1cccc(NC(=O)c2c(F)c(F)c(F)c(F)c2F)c1	3.41%
COC(=O)c1ccccc1NC(=O)Cn1cc2c(n1)CCC(C)C2 (centres unmarked)	-5.88%
Nc1nc(SCC(=O)N2CCOCC2)[nH]c(=O)c1-c1ccccc1	24.6%
CCn1cc(CN2CCc3c([nH]c4ccccc34)C2c2cccc(O)c2)c(C)n1 (centres unmarked)	-18.8%
O/N=C1/C2C3C(Br)C4C5CC(C1C53)C24 (centres unmarked)	-16.4%
COCCn1nnnc1SCC(=O)c1ccccc1	14.1%
Cc1ccc(N=C(N)N=C(N)N)c(C)c1	12.5%

SMILES	hERG current change (%, negative = inhibition) at 10uM
Cc1ccc(C(=O)O)cc1N1C(=O)c2cccc3cc(Br)cc(c23)C1=O	15.7%
CN(Cc1cccs1)C(=O)CCNS(=O)(=O)c1ccc(Br)cc1	-42.4%
COc1ccc(NC(=O)CCCn2cnc3ccccc3c2=O)cc1	1.16%
COC(=O)/C(=C1/Oc2ccc(C)cc2S1)C(F)(F)F	32.8%
COc1ccc(C(=O)N/C(=C/c2ccco2)C(=O)NC2CCS(=O)(=O)C2)cc1 (centres unmarked)	20.6%
COc1ccc(/C=N/NC(=O)c2ccc(COc3cccc4cccnc34)cc2)cc1O	-13.5%
Cc1cccc2sc(N(CCCN(C)C)C(=O)c3nc4ccccc4s3)nc12.Cl	4.2%
O=C(Cn1cc(C(=O)c2ccco2)c2ccccc21)Nc1ccccc1F	-2.42%
CC(=O)Nc1ccc(S(=O)(=O)N2CCC(N3CCCCCC3)CC2)cc1.O=C(O)C(=O)O	-3.95%
O=C(NCCO)c1cccc2c1-c1ccccc1C2=O	3.51%
CCc1nc2nc(C)c(NS(=O)(=O)c3ccc4c(c3)CCCC4)c(=O)n2[nH]1	16.1%
COc1cc(C2N3CC4(C)CN2CC(C)(C3)C4)ccc1O (centres unmarked)	-7.43%
CC(=O)Nc1ccc(S(=O)(=O)Nc2nc3ccc(C)cc3s2)cc1	0.462%
CCCCNCC(O)(c1ccc(Cl)cc1)c1ccc(Cl)cc1	-68%
Cc1nnc(N(C)C(=O)c2ccc3c(c2)OCO3)s1	21.9%
O=C(Cc1cccs1)Nc1nc(-c2ccc(F)c(F)c2)cs1	19%
COCCNC(=O)c1ccc(-n2c(SCc3cccnc3)nc3ccccc3c2=O)cc1	-8.88%
O=C(C[n+]1cccc(NC(=O)c2ccccc2)c1)c1ccc(NC(=O)c2ccccc2)cc1.[Br-]	1.37%
CCOc1ccc(OCCC(=O)N2CCN(S(=O)(=O)c3ccc(F)cc3)CC2)cc1	-6.61%

SMILES	hERG current change (%, negative = inhibition) at 10uM
O=C(Nc1cccc(F)c1)NC1(C(=O)N2CCN3CCCC3C2)CCCCC1 (centres unmarked)	3.39%
Cc1ccc(S(=O)(=O)N(C)C)cc1NC(=O)CSc1ccc2c(c1)OCCO2	-24.1%
Cc1ccc2nc(-c3ccccn3)cc(C(=O)NCCc3ccc(F)cc3)c2c1	35%
Cc1nc2c(C)cccn2c(=O)c1NC(=O)c1ccc2c(c1)OCO2	6.97%
CCCCCC(=O)NC(=S)NNC(=O)c1ccc([N+](=O)[O-])cc1	24.5%
CC(=O)Nc1ccc(S(=O)(=O)N2CCN(C(=O)CCC3CCCC3)CC2)cc1	-21.2%
CC(=O)c1cccc(NC(=O)NC2CC3CCCC(C2)N3CC(C)C)c1 (centres unmarked)	-9.61%
COc1ccc(/C=C2\CN(Cc3ccccc3)C/C(=C\c3ccc(OC)cc3OC)C2=O)c(OC)c1	17.6%
Nc1cc(N)nc(SCc2cc([N+](=O)[O-])cc3c2OCOC3)n1	-12.9%
CCCC(NC(=O)c1c(C)noc1C)C12CC3CC(CC(C3)C1)C2 (centres unmarked)	12.9%
CCOC(=O)c1c(C)oc2cc(Br)c(OC(C)C(=O)OCC)cc12 (centres unmarked)	-0.807%
COc1cc(C(=O)Nc2ccc(C)cn2)c([N+](=O)[O-])cc1OC	4.44%
C=C(C)CN=C1NN=C(c2cc(C)n(-c3ccc(C)cc3)c2C)CS1	4.06%
O=C(Nc1nnc(SCc2ccc(Cl)cc2)s1)C1CCCO1 (centres unmarked)	-21.9%
C(=N\n1cnnc1)/c1ccc(OCc2cccc3ccccc23)cc1	-33.4%
Cc1ccc(N(CC#N)C(=O)CS(=O)(=O)c2cccc([N+](=O)[O-])c2)cc1	-17.4%
CN(C(=O)CSc1nnc(-c2ccncc2)n1Cc1ccccc1)C1CCS(=O)(=O)C1 (centres unmarked)	5.46%
C/C(=C/C(=O)Nc1cccc(F)c1)N1CCCC1	18.2%
